# Laboratory results from PubChem BioAssay AID493208 (National Center for Advancing Translational Sciences (NCATS), 2011).
# Among all 44,000 compounds or so, about 340 (0.77%) were called active. Inconclusive results (about 5%) are left out. The call rests on the fitted dose curve; in most records, active means well fitted inhibition curve with a large enough effect; inconclusive means small, poorly fitted or top-dose-only effect; inactive means flat fitted curve, though single readings scatter. This is one part of the list.
# Test: Acumen qHTS Assay for Inhibitors of the mTORC1 Signaling Pathway in MEF (Tsc2-/-, p53-/-) Cells: Sytravon; further: nearly all actives have a fitted effect of over 50% in size;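 on activity change, negative = inhibition: plate controls were DMSO for no effect and rapamycin for full effect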
# Settings: phospho-rpS6 immunofluorescence/PI, 24 h; series mostly up to 38.3 µM; activity change, negative = inhibition: at the top concentration
# In short: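 Cell-based qHTS: Tsc2-/- p53-/- MEF, 24 h cpd, 37 °C; fix/perm, anti-phospho-S6 Alexa-488 + PI; Acumen 488 nm scan; pS6/PI ratio, % positive cells; rapamycin 7.5 nM = inhibition ref; PI count = viability.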
# Potency means the concentration at half of the fitted maximal effect.
SMILES,"activity change, negative = inhibition",Potency
Cc1ccccc1NC(=O)CCNC(=O)Cn1ccc2ccccc2c1=O,inactive: 0.852%,–
CC(C)(C)C(=O)Nc1cccc(C(=O)OCc2cc(=O)n3nc(C4CC4)sc3n2)c1,inactive: 4.17%,–
COc1cc(NC(=O)c2cc3ccc4cccnc4c3[nH]2)cc(OC)c1OC,inactive: 9.8%,–
COc1ccccc1N1CCN(S(=O)(=O)CCNC(=O)C2CC(=O)N(c3ccccc3)C2)CC1 (centres undefined),inactive: 0.184%,–
CCOC(=O)c1ccc(NC(=O)CC2C(=O)N(c3ccc(C)cc3)C(=O)N2C2CCCC2)cc1 (centres undefined),inactive: -5.92%,–
CCOC(=O)c1ccc(NC(=O)CSc2nc(-c3cccs3)cc(C(F)(F)F)c2C#N)cc1,inactive: -11.8%,–
COC(=O)CN1C(=O)CSc2ccc(S(=O)(=O)Nc3c(C)cc(C)cc3C)cc21,inactive: -8.43%,–
CCOC(=O)N1CCc2c(sc(NCc3sccc3C)c2C(=O)Nc2cc(Cl)ccc2OC)C1,inactive: 2.05%,–
CCS(=O)(=O)c1nc(S(=O)(=O)c2ccc(C)cc2)c(NCC(C)C)s1,inactive: -0.0853%,–
CC(=O)C1=C(c2ccc(Cl)c(Cl)c2)N(C(C)=O)n2cnnc2S1,–,active: 14.7 µM
O=C1CN(C(=O)COc2ccc(Cl)cc2)C(c2ccc(F)cc2)c2cc(Br)ccc2N1 (centres undefined),inactive: -30.7%,–
Cc1ccc(NC(=O)N2CCN(Cc3nc4ccc(C)cc4o3)CC2)c(Cl)c1,inactive: 0%,–
Cc1cc(C)n(-c2nc(C)c(C)c(=O)n2CC(=O)Nc2ccc(Cl)c(Cl)c2)n1,inactive: -3.12%,–
COc1ccc(-c2nnc(SCC(=O)Nc3cccc(Cl)c3C)nc2-c2ccc(OC)cc2)cc1,inactive: 9.4%,–
COc1ccc(-c2cc(OC(=O)c3cccc(C)c3)c3c(C)oc(C)c3c(=O)c2)cc1,inactive: 4.34%,–
Cc1cc(C)c(NC(=O)Cn2nnc(C(=O)Nc3ccc(F)cc3F)c2N)c(C)c1,inactive: 4.87%,–
CC(=O)Nc1ccc(NC(=O)c2c(C)nn(-c3ccccc3)c2-n2cccc2)cc1,inactive: -2.23%,–
Cc1ccc(CNc2ncnc3c2cnn3-c2ccc(C)cc2C)cc1,inactive: -2.06%,–
Cc1ccc(CNC(=O)c2ccc3c(c2)nc2n3CCCC2)cc1,inactive: 2.31%,–
COc1cccc(NC(=O)c2nnn(Cc3ccc(OC)c(Br)c3)c2N)c1,inactive: -7.81%,–

SMILES,"activity change, negative = inhibition",Potency
CCc1nn2c(=O)cc(COC(=O)C3CCCCC3)nc2s1,inactive: -0.553%,–
CCn1cc(C(=O)NCc2ccccc2OC)c(=O)c2cc(S(=O)(=O)N3CCCCCC3)ccc21,inactive: 0.614%,–
CCOC(=O)c1cc(-c2ccccc2)n(CCCC(=O)Nc2ccc(C)cc2Cl)c1C,inactive: -4.53%,–
CCc1ccc(NC(=O)C2CCCN(S(=O)(=O)c3cccc4nonc34)C2)cc1 (centres undefined),inactive: 0.936%,–
Cc1cc(C)c(NS(=O)(=O)c2cc(-c3cnc(C4CC4)o3)ccc2C)c(C)c1,inactive: 29.9%,–
COc1ccc(CNC(=O)C2CCN(S(=O)(=O)c3ccc4nc5c(c(C(=O)O)c4c3)CC(C)CC5)CC2)cc1 (centres undefined),inactive: 0.558%,–
CCc1ccc(NC(=O)c2c(C(=O)Nc3ccccc3)sc3nc(C)cc(=O)n23)cc1,inactive: -2.78%,–
CN1C(=O)Cc2cc(S(=O)(=O)CCC(=O)N3CCN(c4cccc(Cl)c4)CC3)ccc21,inactive: -9.52%,–
COc1cc(-c2noc(C3CC(=O)N(c4cc(C)ccc4C)C3)n2)cc(OC)c1OC (centres undefined),inactive: -2.31%,–
Cc1ccsc1CCN1C(=O)N(c2ccc(F)cc2)C(=O)C1CC(=O)Nc1ccccc1 (centres undefined),inactive: -2.25%,–
COc1cccc(NS(=O)(=O)c2cc3c4c(c2)C(C)C(=O)N4CCC3)c1 (centres undefined),inactive: -2.08%,–
COc1cccc(-c2cc(C(=O)N3CCN(c4ccc(F)cc4)CC3)no2)c1,inactive: -6.34%,–
CCOc1ccc(NC(=O)Cn2cnc3c(oc4ccccc43)c2=O)cc1,inactive: 7.26%,–
CC(C)(C)OC(=O)N1CCC(c2c(C(=O)NCc3ccccn3)cnn2-c2ccc(F)cc2)CC1,inactive: -1.97%,–
COc1ccc2c(c1)c1c(c(=O)n(-c3cccc(C)c3)c(=O)n1CC(=O)N1CCCC1)n2C,inactive: -1.12%,–
Cc1cc(C)c2c(=O)cc(C(=O)Nc3ccc(S(=O)(=O)Nc4onc(C)c4C)cc3)oc2c1,inactive: -1.44%,–
Cc1ccc2c(=O)cc(C(=O)Nc3c(C(=O)c4ccccc4)oc4ccccc34)oc2c1C,inactive: 2.31%,–
CCN1C(=O)c2ccccc2Sc2ccc(NC(=O)Cc3ccc(OC)cc3)cc21,inactive: -6.33%,–
COc1ccc(-c2cc(-c3ccccc3)nc3c2COc2ccccc2-3)cc1,inactive: -20.8%,–
CCCn1cc(S(=O)(=O)c2cc(C)ccc2C)c(=O)c2cc(F)c(N3CCCCCC3)cc21,inactive: 1.57%,–

SMILES,"activity change, negative = inhibition",Potency
CCOc1ccc(NCc2cccn2-c2nnc(N3CCC(C(=O)NCc4cccc(OC)c4)CC3)s2)cc1,inactive: -1.15%,–
CC(C)CC(=O)Nc1nnc2n1CCS2,inactive: 2.58%,–
COc1ccc(-n2nnc(C(=O)Nc3ccccc3F)c2N)cc1,inactive: -19%,–
CCc1ccccc1N(c1nc(-c2ccc(OC)c(OC)c2)no1)c1nc(-c2ccc(OC)c(OC)c2)no1,inactive: 0.403%,–
COc1cccc(NC(=O)C(=O)NCCc2csc3nc(-c4ccccc4C)nn23)c1,inactive: 4.44%,–
CC(=O)NCc1nc2cccnc2n1Cc1ccccc1,inactive: -1.26%,–
CC(=O)c1cc(-c2ccccc2)n(CCC(=O)NCCc2ccccc2)c1C,inactive: -2.55%,–
COC(=O)c1c(NC(=O)c2nc(SC)ncc2Cl)sc2c1CCCC2,inactive: 3.52%,–
Cc1ccc(Cc2nc3ccccc3nc2SCC(=O)NCCc2ccccc2)cc1,inactive: 0.519%,–
Cc1cccc(CCNC(=O)c2ccc3c(c2)nc2n3CCCCC2)c1,inactive: 1.33%,–
Cc1nc2c(-c3ccc(F)cc3)c(C)nn2c(C)c1CCC(=O)N1CCN(c2ccc(F)cc2)CC1,inactive: -0.015%,–
Cc1oc(-c2cccc(Cl)c2)nc1CSc1nnc(C)n2c1cc1occc12,inactive: 1.83%,–
CCc1cccc(C)c1NC(=O)Cn1c(=O)n(-c2cccc(C)c2)c(=O)c2c1c1cc(C)ccc1n2C,inactive: -4.72%,–
COc1ccccc1N1CCN(C(=O)Cn2cnc3sc(C)c(S(=O)(=O)N4CCC(C)CC4)c3c2=O)CC1,inactive: -1.78%,–
CC(=O)c1cccc(NC(=O)C(C)n2c(=O)cc(-c3ccccc3)c3c(C)nn(C)c32)c1 (centres undefined),inactive: -5.09%,–
COc1cccc(CNC(=O)c2ccc(NC(=O)N3CCCCc4ccccc43)cc2)c1OC,inactive: -5.4%,–
CCOc1cccc(OCCCn2c(-c3ccc(Br)cc3)nc3ccccc3c2=O)c1,inactive: 2.18%,–
CCOc1ccc(-c2cc(-c3nc(-c4ccc(C)cc4)no3)[nH]n2)cc1,inactive: -2.86%,–
CCN1C(=O)c2ccccc2S(=O)(=O)c2ccc(C(=O)NCc3ccccc3Cl)cc21,inactive: 0.663%,–
